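Cultured in 96-well plates, cells were exposed to test compound for 48 hours across five concentrations. GI50 = concentration required for 50% inhibition of growth.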 Active and inactive are the calls of the source. Rule as the data show it: active = GI50 up to about 1.1 µM and inactive = higher.
The molecules below were run on NCI-H322M (assay: NCI tumour cell line growth inhibition, 48 h).
O=c1ccn(COC(COCc2ccccc2)COCc2ccccc2)c(=O)[nH]1 was tested, and the GI50 was inactive: > 100 µM. In the case of Cn1c(Sc2ccc(-c3cccnc3)n2C)ccc1-c1cccnc1, the GI50 is reported as inactive: 24.6 µM. In the case of CCn1c2c(c3ccccc3c1=O)C(=O)c1ccccc1-2, the GI50 is reported as inactive: > 100 µM. With COc1cccc(C2c3cc4c(cc3OC(N3CCOCC3)C2C)OCO4)c1O (centres undefined) the GI50 was inactive: 9.27 µM. With C=C1C(=O)OCC2C(C(=O)O)=CC3C(C)C(C)=CC123 (centres undefined) the GI50 was inactive: 10.7 µM. For N#Cc1ccc(CSC2=C(c3ccc(Cl)cc3)S/C(=C3\SC(SCc4ccc(C#N)cc4)=C(c4ccc(Cl)cc4)S3)S2)cc1, the GI50 was inactive: > 100 µM. In the case of CC(=O)ON(C(C)=O)C1C(COC(c2ccccc2)(c2ccccc2)c2ccccc2)OC2OC3(CCCC3)OC21 (centres undefined), the GI50 is reported as inactive: > 81.5 µM. For CC1OC(O[C@@H]2OC=C(C=O)[C@@]3(O)CC[C@H](C)[C@@H]23)C(O)C(O)C1O (some centres undefined), the GI50 was inactive: > 100 µM. FC(F)(F)c1ccc2nc(Sc3ccc4ccccc4c3)cnc2c1 was tested, and the GI50 was inactive: > 100 µM. Nc1nc(NCCO)c(N=O)c(=O)[nH]1 was tested, and the GI50 was inactive: > 100 µM. For C=C1CC/C=C(\C)CCC[C@H](C)[C@@H](O)[C@@H]2OC(=O)C(=C)[C@@H]2C[C@H]1O, the GI50 was inactive: 24.1 µM. For COc1ccc(-c2cc(-c3ccccc3)nc(N)c2-c2ccc3ccccc3c2)cc1, the GI50 was inactive: 1.93 µM. With CC(=O)Nc1ccc(C(=O)NN2C(=O)CSC2c2ccc(O)cc2)cc1 (centres undefined) the GI50 was inactive: > 100 µM. In the case of CC(=O)c1cccc(Nc2nc3ccc(Cl)cc3c3[nH]c4ccccc4c23)c1, the GI50 is reported as inactive: 4.7 µM. CCCc1c(Cl)nc(Cl)nc1Cl was tested, and the GI50 was inactive: 6.98 µM. For CC(C)=NNc1snnc1C(N)=O, the GI50 was inactive: > 100 µM. O=c1c2cc3c(cc2c2cccc4c2n1CCC4)OCO3 was tested, and the GI50 was inactive: 28.4 µM. For O=C(CC1(O)C(=O)Nc2c(Cl)cccc21)c1ccccc1 (centres undefined), the GI50 was inactive: > 100 µM. For COc1ccc(Cn2c3c(cc(OC(C)=O)c2=O)Cc2ccccc2-3)cc1, the GI50 was inactive: 9.84 µM. In the case of CC1(C)O[C@@H](CP(c2ccc3ccccc3c2)c2ccc3ccccc3c2)[C@H](CP(c2ccc3ccccc3c2)c2ccc3ccccc3c2)O1, the GI50 is reported as inactive: > 100 µM. For Cc1ccc(SC[C@@]2(C(F)F)NC(=O)NC2=O)cc1, the GI50 was inactive: > 100 µM. With O=C1c2cc3c(cc2CC12Cc1ccc4c(c1C2=O)CCCC4)CCCC3 (centres undefined) the GI50 was inactive: > 100 µM. Clc1nc(Nc2nc3ccccc3[nH]2)nc(Cl)c1-c1ccccc1 was tested, and the GI50 was inactive: > 100 µM. In the case of COc1cc(OCc2ccc3oc(=O)c(-c4ccccc4)nc3c2)cc(OC)c1OC, the GI50 is reported as inactive: > 100 µM. With COc1cc(O)c2c(c1)C(O)C(O)CC1OC1C(=O)/C=C/CC(C)OC2=O (centres undefined) the GI50 was inactive: 15.6 µM. In the case of N#CCCc1nc2ccc(Br)cc2c(=O)n1-c1ccc(O)c([N+](=O)[O-])c1, the GI50 is reported as inactive: 16.4 µM. c1ccc2cc3n[se]nc3cc2c1 was tested, and the GI50 was inactive: 22.5 µM. With COc1ccc(OC)c2sc(N3C(=O)/C(=C/c4ccccc4S)N=C3c3ccccc3)nc12 the GI50 was inactive: > 100 µM. With C/C(CCn1[nH]c(=O)ccc1=O)=N\N=C(N)N the GI50 was inactive: > 100 µM. NC1=C(NC(=O)Cc2ccccc2F)C(=O)c2ccccc2C1=O was tested, and the GI50 was inactive: > 100 µM. With O=S(=O)(O)c1cc(/N=N/c2cccc3ccccc23)c(O)c2ncccc12 the GI50 was inactive: 29.8 µM. With CC(=O)Nc1ccc(Nc2cc(=O)n(C)c(=O)[nH]2)cc1 the GI50 was inactive: > 100 µM. With CCOC(=O)c1c(N2CCCC2)[nH]c(=O)c(C(c2ccc(OC)cc2)c2c(O)c(C(=O)OCC)c(N3CCCC3)[nH]c2=O)c1O the GI50 was inactive: 81.5 µM. With Cc1ccc(-c2n[nH]c(=O)n2N2C(=O)C=CC2=O)cc1 the GI50 was inactive: > 100 µM. For Cc1cc2nc3c(=O)n(C)c(=O)nc-3n(-c3ccc(Cl)cc3)c2cc1C, the GI50 was inactive: 13.2 µM. For Cc1ccc(NC(=O)C(=O)C(C#N)c2ccccc2C)cc1C (centres undefined), the GI50 was inactive: > 100 µM. For N#CC(/C(=N/NC(=N)N)C(=O)Nc1ccccc1[N+](=O)[O-])c1nc(-c2ccc([N+](=O)[O-])cc2)cs1 (centres undefined), the GI50 was inactive: > 100 µM. For CC(=O)C1C(c2ccccc2)C2(C)OC(=O)C(C#N)C12C (centres undefined), the GI50 was inactive: > 100 µM. In the case of O=C(C(=O)c1cc2ccccc2[nH]1)c1cc2ccccc2[nH]1, the GI50 is reported as inactive: > 347 µM. For COC(=O)C12OCC34C(CC5C(C)C6=CC(=O)OC6=CC5(C)C3C(O)C1O)OC(=O)C(OC(C)=O)C24 (centres undefined), the GI50 was inactive: 19 µM. With COC(=O)C1CC(C(=O)OC)c2nc3cc(C)c(C)cc3nc21 (centres undefined) the GI50 was inactive: > 100 µM. In the case of CC(C)(CO)NC(=O)Nc1c(C(F)(F)F)cc(-c2ccccc2)[nH]c1=O, the GI50 is reported as inactive: > 100 µM. With Cc1ccnc(NC(=S)Nc2ccccc2Cl)c1 the GI50 was inactive: > 100 µM. In the case of CC1=C(O)C(=O)C2C(=O)C1C(C)C2c1ccc(C)cc1 (centres undefined), the GI50 is reported as inactive: > 100 µM. In the case of O=CC1C(Cl)=Nc2nc3ccccc3n2C1c1ccccc1 (centres undefined), the GI50 is reported as inactive: > 100 µM. In the case of CCc1cccc(C(C)C)c1NC(=O)CCl, the GI50 is reported as inactive: > 100 µM. In the case of CC(NC(=O)C(N)CC(=O)O)C(=O)OC12CC3CC(CC(C3)C1)C2 (centres undefined), the GI50 is reported as inactive: > 100 µM. For CC(C)(C)c1nc2c(o1)/C(=N\c1ccc(F)cc1)c1ccccc1C2=O, the GI50 was inactive: 18.3 µM. With O=[N+]([O-])/C(C(Cl)=C(Cl)Cl)=C(/Nc1cccc2cccnc12)n1nnc2ccccc21 the GI50 was inactive: 20.9 µM. With CCC(N)(C(=O)O)C(C)C (centres undefined) the GI50 was inactive: > 100 µM. CN1CCN(CCCCN2c3ccccc3Sc3ccc(C(=O)c4ccccc4)cc32)CC1 was tested, and the GI50 was inactive: 1.91 µM. CC(SC(=S)N1CCCC1)C(=O)Nc1nnc(-c2ccc(Cl)cc2)o1 (centres undefined) was tested, and the GI50 was inactive: 34.3 µM. With CCCCc1ccc(N2C(=O)c3cc(C)cnc3S2(=O)=O)cc1 the GI50 was inactive: > 100 µM. For Cc1ccc(/C=C/C(=O)c2cccc3ccccc23)cc1, the GI50 was inactive: 17.3 µM. For CCCCCCCCCCC[N+]1(Cc2ccccc2)CC2CCN(Cc3ccccc3)CC2C1 (centres undefined), the GI50 was inactive: 1.55 µM. In the case of O=C1NCC2=C1CCC1c3ccccc3CCN21 (centres undefined), the GI50 is reported as inactive: > 100 µM. In the case of Cc1c(O)nc(-n2[nH]c3c(c2=O)CCCC3)[nH]c1=O, the GI50 is reported as inactive: > 100 µM. With CCOC(=O)C1CC(O)C(=O)N1C (centres undefined) the GI50 was inactive: > 100 µM. With COc1cc(OC)c(/C=N/N=C(\N)NO)c(OC)c1 the GI50 was inactive: > 100 µM. CNc1nc(SC)nc2c1c(N)nn2C was tested, and the GI50 was inactive: > 100 µM. With c1ccc(-c2sc(-c3cccs3)cc2Cc2cccs2)cc1 the GI50 was inactive: > 10 µM. CCOC(=O)CC(=O)ON(C)C(C)=O was tested, and the GI50 was inactive: > 100 µM. With Cc1cc(C)c(P2C(=C(O[Si](C(C)C)(C(C)C)C(C)C)C(C)(C)C)C2(c2ccccc2)c2ccccc2)c(C)c1 (centres undefined) the GI50 was inactive: > 100 µM. With Cc1cc2nc3ccccc3n2c2ccccc12 the GI50 was inactive: > 10 µM. With C/C(=N\NC(=O)C(N)=O)c1c(O)cc(C)oc1=O the GI50 was inactive: > 100 µM. With O=C(NC(Cc1c[nH]c2ccccc12)C(=O)O)/C(=C/c1ccccc1)NC(=O)c1ccccc1 (centres undefined) the GI50 was inactive: > 100 µM. In the case of CCOC(=O)c1cn(CC)c2cc3c(cc2c1=O)CCS3(=O)=O, the GI50 is reported as inactive: > 100 µM. In the case of CCOC(=O)Cc1nc2cc(F)c(F)cc2[nH]c1=O, the GI50 is reported as inactive: > 100 µM. With O=c1c2ccccc2nc(-c2ccccc2)n1NC(=S)Nc1ccccc1 the GI50 was inactive: > 100 µM. With COc1ccc2c(c1)CC1COc3cc(OC)ccc3C1O2 (centres undefined) the GI50 was inactive: > 100 µM. With COc1cccc(/C=C2\S/C(=N/Nc3nc(C)c(C)s3)NC2=O)c1O the GI50 was inactive: > 100 µM. For C=C1C(=O)OC2/C=C(/C)C(OC(C)=O)CC(O)/C(C)=C\C(OC(=O)/C(C)=C\C)C12 (centres undefined), the GI50 was inactive: > 100 µM. C=C1c2c(n(S(=O)(=O)c3ccccc3)c3ccccc23)[C@@]2(C(=O)OC)CC3C=CC2N1C3 was tested, and the GI50 was inactive: > 100 µM. In the case of c1cc(-c2ncc(-c3ccc4c(c3)CCCO4)o2)ccn1, the GI50 is reported as inactive: 34.8 µM. In the case of COc1cccc(NC(=O)CC(=O)n2nc(C)c(/N=N/c3ccccc3)c2C)c1, the GI50 is reported as inactive: > 100 µM. In the case of Oc1ccccc1C1C=C(c2ccccc2)NC(N2CCCCC2)=C1c1nc2ccccc2[nH]1 (centres undefined), the GI50 is reported as inactive: 17.4 µM. With c1ccc(C2=NCCc3cc4c(cc32)OCO4)cc1 the GI50 was inactive: > 100 µM. For C[C@@]12CC[C@H]3[C@@H]4CCC(=O)N[C@@]4(C)CC[C@@H]3[C@@]1(C)CC[C@H](OC(=O)Cc1ccc(N(CCCl)CCCl)cc1)C2, the GI50 was inactive: 18.6 µM. Cc1nc(C(N)=S)sc1C(=O)CC(=O)C(=O)Nc1cccc(Cl)c1C was tested, and the GI50 was inactive: > 100 µM. For CCCCCCC(/C=N/O)C(C)(O)CCC (centres undefined), the GI50 was inactive: > 100 µM. CCC12C=CCN(CCc3c([nH]c4ccccc34)/C=C\1)C2 (centres undefined) was tested, and the GI50 was inactive: > 100 µM. For OC1/C(=C/c2ccccc2)CNC/C1=C\c1ccccc1 (centres undefined), the GI50 was inactive: > 100 µM. With O=S(=O)(O)c1ccc(/N=N\c2c(O)ccc3cc(Br)ccc23)cc1 the GI50 was inactive: > 100 µM. COC(=O)[C@@H](O)[C@]1(C(=O)OC)C2O[C@@H](OC)[C@@H]1CCCCCC[C@H]2O was tested, and the GI50 was inactive: > 100 µM. COC(=O)[C@@H]1C(=O)O[C@@H](c2ccc(OC)c(OC)c2OC)[C@@H]1C(=O)OC.COC(=O)[C@H]1C(=O)O[C@@H](c2ccc(OC)c(OC)c2OC)[C@@H]1C(=O)OC was tested, and the GI50 was inactive: > 100 µM. In the case of CC(C)CCCC(C)[C@H]1CCC2[C@@H]3CCC4Nc5nocc5C[C@]4(C)C3CC[C@@]21C (some centres undefined), the GI50 is reported as inactive: 30.9 µM. For CC(=O)c1nc2ccccc2n1CC(=O)c1ccc([N+](=O)[O-])cc1, the GI50 was inactive: 28.2 µM. In the case of CCOCC(=O)N[C@H]1CCc2cc(OC)c(OC)c(OC)c2-c2ccc(SC)c(=O)cc21, the GI50 is reported as active: < 0.01 µM. O=C1/C(=C/c2cccc(Br)c2)CCc2ccccc21 was tested, and the GI50 was inactive: 17.7 µM. C[n+]1c(-c2ccc(/C=N\N3CCN(/N=C/c4ccc(-c5cn6ccsc6[n+]5C)cc4)CC3)cc2)cn2ccsc21 was tested, and the GI50 was inactive: 67.8 µM. Cc1cnc2nc(-c3sccc3C)cc(O)c2c1 was tested, and the GI50 was inactive: 6.12 µM. For N=C(N)N/N=C/c1c(Cl)nc2sccn12, the GI50 was inactive: 19.1 µM. CCN(CC)C(=S)SS(=O)(=O)c1ccccc1C(=O)O was tested, and the GI50 was inactive: > 100 µM. COc1cc2c(/C=C3/C(=O)N(C)c4ccccc43)c(Cl)[nH]c2cc1C was tested, and the GI50 was inactive: 2.53 µM.
